Assay results: PMC4336329 (PLoS ONE, 2015)
Out of some 310,000 compounds screened, about 14,000 (4.5%) showed an effect of 50% or more. Effects have a minus sign here. The list shows a part of the results.

Molecular target: human ether-à-go-go-related gene (hERG) potassium channel (human, UniProt Q12809)
Assay: primary screen, population patch clamp on CHO cells stably expressing hERG
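Also: peak tail current of the secondary pulse compared with the same well before compound.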

Sequence of human ether-à-go-go-related gene (hERG) potassium channel (Q12809 whole entry, looked up): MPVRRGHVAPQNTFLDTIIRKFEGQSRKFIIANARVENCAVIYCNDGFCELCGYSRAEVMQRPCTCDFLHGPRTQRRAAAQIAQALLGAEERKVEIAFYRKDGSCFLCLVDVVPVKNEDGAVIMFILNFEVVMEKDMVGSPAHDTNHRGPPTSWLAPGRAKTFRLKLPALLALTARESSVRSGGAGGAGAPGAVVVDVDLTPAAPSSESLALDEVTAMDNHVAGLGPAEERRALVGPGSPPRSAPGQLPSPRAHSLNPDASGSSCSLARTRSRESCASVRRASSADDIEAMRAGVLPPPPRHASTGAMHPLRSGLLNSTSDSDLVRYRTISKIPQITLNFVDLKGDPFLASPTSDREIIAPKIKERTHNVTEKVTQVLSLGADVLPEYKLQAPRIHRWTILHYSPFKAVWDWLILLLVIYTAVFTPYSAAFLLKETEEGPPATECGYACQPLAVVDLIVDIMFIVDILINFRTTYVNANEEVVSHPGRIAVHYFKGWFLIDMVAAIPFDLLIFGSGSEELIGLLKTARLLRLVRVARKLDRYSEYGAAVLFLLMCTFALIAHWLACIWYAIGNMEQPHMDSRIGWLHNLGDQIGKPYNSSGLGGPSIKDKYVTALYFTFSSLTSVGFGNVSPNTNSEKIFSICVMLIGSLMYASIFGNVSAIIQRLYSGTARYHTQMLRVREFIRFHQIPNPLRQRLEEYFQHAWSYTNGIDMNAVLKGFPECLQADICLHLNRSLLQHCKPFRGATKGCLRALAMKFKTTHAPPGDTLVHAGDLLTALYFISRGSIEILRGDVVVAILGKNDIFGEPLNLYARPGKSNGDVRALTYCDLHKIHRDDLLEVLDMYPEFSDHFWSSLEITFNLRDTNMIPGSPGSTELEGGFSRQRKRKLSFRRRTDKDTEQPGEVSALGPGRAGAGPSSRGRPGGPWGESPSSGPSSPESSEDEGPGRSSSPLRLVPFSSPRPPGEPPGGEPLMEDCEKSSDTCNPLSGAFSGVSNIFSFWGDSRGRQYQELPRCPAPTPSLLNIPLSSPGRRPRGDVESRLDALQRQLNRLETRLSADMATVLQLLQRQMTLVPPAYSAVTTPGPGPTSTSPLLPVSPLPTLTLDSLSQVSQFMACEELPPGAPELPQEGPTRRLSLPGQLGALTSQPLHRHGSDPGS

Structure (SMILES)	hERG current change (%, negative = inhibition) at 10uM
NC(=O)C1(N2CCCCC2)CCN(C(=S)Nc2ccc(S(N)(=O)=O)cc2)CC1	11.8%
O=C(NCc1ccc(F)cc1)c1ccc(Cl)c(NC2=NC3CS(=O)(=O)CC3S2)c1 (stereo not drawn)	-12.4%
O=C(CN1Cc2ccccc2C1=O)Nc1ccc2c(c1)OCCO2	3.26%
Cc1nnc(SCc2ccc(Cl)c(Cl)c2)s1	-6.82%
CCN1CCN(C(=O)CN(c2ccc(F)cc2)S(=O)(=O)c2ccc(OC)c(OC)c2)CC1	-66.8%
Cc1cccc(N=C2NC(=O)/C(=C/c3cccs3)S2)c1	11.9%
Cc1cccc(C)c1NC(=O)C(=O)NCc1ccccn1	-2.62%
CCOC(=O)c1cnc2c(c(C)nn2C)c1Oc1cc(Cl)cc(Cl)c1	11.1%
O=C(CC(=O)N/N=C\c1c(Cl)cccc1Cl)NCc1ccccc1	14.7%
C=CCSc1nnc(NC(=O)c2ccc(N3CCCC3=O)cc2)s1	18.7%
CSCCC(NC(=O)c1ccccc1)C(=O)N/N=C(\C)Cc1ccccc1 (stereo not drawn)	11.2%
O=C(c1ccc(N2CCCC2=O)cc1)N1CCN(c2ccccc2O)CC1	-23.7%
O=C(c1ccco1)N1CCN(S(=O)(=O)c2cccc3nsnc23)CC1	-7.37%
CCc1ccc(NC(=S)N2CCCC2)cc1	12.9%
Nc1ccc2oc(-c3cc(Br)ccc3Cl)nc2c1	5.7%
CC(C)CC(=O)Nc1nnc(SCC(=O)NCc2ccco2)s1	-10.3%
Cc1cc(NCCCn2ccnc2)n2nc(-c3ccc(Cl)cc3)cc2n1	-74.6%
CCC(=O)N1c2ccccc2NC2=C(C(=O)CC(c3ccco3)C2)C1c1ccco1 (stereo not drawn)	-11.3%
O=c1[nH]c(CN2CCCC2)nc2sc3c(c12)CCC3	20.5%
CCn1cnc2cc(NCc3ccccc3Cl)ccc21	-52.1%
CCCCOC(=O)C(NC(=O)c1ccccc1)=C(C)C	7.83%
CCOc1ccc(OCC)c(NC(=O)CCCN2C(=O)c3cccnc3C2=O)c1	6.57%

Structure (SMILES)	hERG current change (%, negative = inhibition) at 10uM
COCCN1C=C(C(=O)OC)C(c2ccc(Cl)cc2)C(C(=O)OC)=C1	-5.52%
COc1cc(OC)cc(C(=O)N[C@H](C(=O)Nc2ccc(S(=O)(=O)N(C)C)cc2)C(C)C)c1	2.97%
Cc1ccc(C)c(OCC(=O)Nc2ccc(S(=O)(=O)Nc3ncccn3)cc2)c1	5.02%
Cc1cccc(N(CC(N)=O)S(C)(=O)=O)c1C	21.5%
CCCNC(=O)CCc1nnc2ccc(N3CCC(C)CC3)nn12	2.79%
Br.COc1ccc(-c2csc(Cc3nnc4n3CCCCC4)n2)cc1OC	-23.2%
COCC(=O)NNS(=O)(=O)c1ccccc1[N+](=O)[O-]	10.5%
Cc1cc(C)c(S(=O)(=O)CCC(C)C)c(=O)[nH]1	7.63%
CCOC(=O)Cc1csc(NC(=O)c2c(-c3c(F)cccc3Cl)noc2C)n1	-32.7%
CCOc1ccc(C(=O)Nc2ccc(Cc3ccncc3)cc2)cc1Br	8.02%
CCOC(=O)C1(CC2CCCCO2)CCN(Cc2cc3ccccc3[nH]2)CC1 (stereo not drawn)	-46.1%
CC(C)CC1=NN(C(=O)c2ccco2)C(O)(C(F)(F)F)C1 (stereo not drawn)	26.5%
CCCCCN(C(=O)COC(=O)c1ccc(Br)o1)c1c(N)n(CCCC)c(=O)[nH]c1=O	-6.93%
COc1cccc(C2NC(=O)CCC2[N+](=O)[O-])c1 (stereo not drawn)	19.3%
Cc1ccc(N2C(=O)Nc3ccc(Br)cc3C2(O)C(=O)NCCN(C)C)cc1C (stereo not drawn)	21.4%
N#Cc1c(SCC(N)=O)nc(-c2ccccc2)c2c1CCCC2	-0.645%
O=C(COC(=O)c1cc(Cl)ccc1[N+](=O)[O-])NCc1ccc(Cl)cc1Cl	-11.8%
O=C(O)CC1S/C(=N/N=C/c2ccc(-c3ccc(Cl)cc3[N+](=O)[O-])o2)NC1=O (stereo not drawn)	5.69%
Cc1ccc2nc(Cl)c(/C=N/Nc3nc(C)cc(C)n3)c(=O)n2c1	-21.5%
C=CCn1c(SCC(=O)c2c(N)n(C)c(=O)n(C)c2=O)nc2sc(CC)cc2c1=O	-7.87%
COCCn1nnnc1C(c1cc2cc(OC)c(OC)cc2[nH]c1=O)N1CCN(c2ccc(O)cc2)CC1 (stereo not drawn)	19.2%
CCCCC1=CC2=CC(=O)C(C)(OC(=O)CC)C(=O)C2=CN1c1cccc(C#N)c1 (stereo not drawn)	-3.42%

Structure (SMILES)	hERG current change (%, negative = inhibition) at 10uM
CNCC(=O)Nc1c(C)n[nH]c1C	11.4%
COc1ccc(CC(=O)Nc2c(C(=O)N3CCN(c4ccccc4)CC3)oc3ccccc23)cc1OC	-32.4%
Cc1nn(C(=O)c2nn(C)cc2[N+](=O)[O-])c(C)c1Br	2.77%
O=C1CC(N2CCN(c3cccc(C(F)(F)F)c3)CC2)C(=O)N1c1ccc(F)cc1 (stereo not drawn)	-6.28%
CC(=O)n1cc([C@H]2C=C(C(N)=O)O[C@@H](OCc3ccc(CO)cc3)C2)c2ccccc21	-16.8%
COc1cccc(CN(C)CC(=O)Nc2ccccc2C(=O)NC2CC2)c1	-27.9%
Fc1ccccc1NC(=S)Nc1ccc(CN2CCOCC2)cc1	10%
O=C1CCC(C(=O)N2CCc3c(Cl)cccc3C2)CN1CCCN1CCOCC1 (stereo not drawn)	1.7%
Nc1c(S(=O)(=O)c2ccccc2)c2nc3ccccc3nc2n1Cc1ccco1	-9.5%
CC(C)c1cccc(C(C)C)c1NC(=O)COC(=O)C1=COCCO1	11.8%
O=C(Nn1c(Cc2cccs2)nc2ccccc2c1=O)c1cccs1	-21.6%
Cn1c(=O)n(-c2ccc(Cl)cc2)c(=O)c2c3c(sc21)COC(C)(C)C3	3.68%
c1ccn(-c2ccc(-c3ccn[nH]3)cc2)c1	19.7%
COc1cc(OC)c2c(N)c(C#N)c(C(F)(F)C(F)(F)F)nc2c1	-9.78%
COc1ccc(C(=O)/C(=C\c2ccco2)N2C=CC=CC2=C(C#N)C#N)cc1	-72%
CCCCn1c(N)c(N(CC(C)C)C(=O)CSCC(=O)Nc2cccc(C)c2)c(=O)[nH]c1=O	1.01%
COc1ccc(C2CC(=O)N3CN(c4ccccc4F)CSC3=C2C#N)cc1OC (stereo not drawn)	22.4%
CCN(CC(=O)Nc1c(F)cccc1F)C(=O)/C=C/c1ccc(C)cc1	-36.1%
O=C(N/C(=C/c1ccco1)C(=O)N1CCOCC1)c1ccccc1Br	8.25%
O=C(CCn1c(=O)c2cccn2c2ccc(F)cc21)NCCc1ccccc1	-19.7%
CC(C)C(OC(=O)c1ccco1)C(=O)NC1CCCC1 (stereo not drawn)	10.9%
COc1ccccc1N(CC(=O)NC1CCCCC1)C(=O)c1cnn(C(C)C)c1	-0.705%

Structure (SMILES)	hERG current change (%, negative = inhibition) at 10uM
S=c1[nH]c(-c2ccc(Cl)cc2)cs1	27.4%
CC(C)Sc1nc2c(c(=O)[nH]c(=O)n2C)n1CCc1ccccc1	-18%
CCOC(=O)c1nnc(-c2cccs2)nc1Oc1ccccc1C(=O)OC	0.0537%
CCOc1ccc(CCNC(=O)CS(=O)Cc2nc(-c3ccc(OC)c(OC)c3)oc2C)cc1OCC (stereo not drawn)	-4.26%
CN1CCN(C(=S)Nc2ccc(S(N)(=O)=O)cc2)CC1	39.7%
COc1ccc(OC)c(CNc2ncc(-c3cccc([N+](=O)[O-])c3)n2C)c1.O=C(O)C(=O)O	-54.8%
CCCC(=O)Nc1nnc(S(=O)(=O)N(C)Cc2ccco2)s1	12.3%
Cc1cc(C)c([N+](=O)[O-])cc1NCC(=O)N1CCN(c2ccccc2)CC1	25.7%
CC(C)COc1ccc(-c2cc(C(=O)NN)[nH]n2)cc1	6.23%
O=c1c2ccccc2nnn1CSc1nnc(-c2cccnc2)n1-c1ccccc1F	11.5%
CCOc1ccc(S(=O)(=O)NCCC(=O)N2CCCCCCC2)cc1	-16.4%
O=C(CSc1nc(-c2ccncc2)nn1CC(=O)N1CCCCC1)NC1CCCC1	-11.1%
Nc1nnc2c(n1)CCCC2	-19.9%
CC1=NN(C(N)=S)C(=O)C1N=Nc1c(Cl)cc([N+](=O)[O-])cc1Cl (stereo not drawn)	26.5%
O=[N+]([O-])c1cccc(-c2cn(-c3ccccc3)c(=S)[nH]2)c1	13.9%
Cc1ccc(Cn2c(SCC(=O)N/N=C/c3ccccc3OCC(=O)O)nc3ccccc32)cc1	1.38%
Nc1nnc(CSc2ccc(Cl)cc2)s1	14.4%
Cc1cc(C)c2c(c1)C1C=CCC1C(c1ccc(S(=O)(=O)N3CCOCC3)cc1)N2 (stereo not drawn)	7.71%
CC(C)(C)NC(=O)CN(C(=O)Cn1nnc(-c2ccc(Cl)cc2)n1)C1CCN(Cc2ccccc2)CC1	-24.5%
Cc1ccc(C)c(-c2nn(-c3cc(N4CCN(CCO)CC4)ccc3[N+](=O)[O-])c(=O)c3ccccc23)c1	-17.8%
Cc1c(C(=O)NNC(=O)c2csc(N3CCOCC3)n2)cccc1[N+](=O)[O-]	-1.14%
